# In PMC12820563:
# This is one part of the list. The list includes weakly bound sequences.
# Target: T1, MBP-FoxP3dN (UniProt Q99JB6)
# T1 sequence: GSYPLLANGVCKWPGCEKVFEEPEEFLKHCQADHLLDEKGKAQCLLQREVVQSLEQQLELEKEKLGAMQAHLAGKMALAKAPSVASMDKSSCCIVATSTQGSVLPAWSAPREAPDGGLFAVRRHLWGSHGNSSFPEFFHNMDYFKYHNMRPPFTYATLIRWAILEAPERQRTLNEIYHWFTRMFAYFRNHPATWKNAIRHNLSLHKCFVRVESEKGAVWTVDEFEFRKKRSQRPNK
# Test: PD-seq (MBP pull-down with sequencing)
# Conditions: 20 mM Tris-HCl pH 7.5, 100 mM NaCl, 1.5 mM MgCl2, 0.4 uM protein, 0.1 uM dsDNA library, 30 min, room temperature, amylose pull-down; high values mean tight binding; double strand, one strand shown
row,Sequence,binding signal (RPM ratio (pull-down/input))
1,GATGATTGTTCTCCCAGCTGATGAATTCTGCGTTTCGAGTAAACAAATTTTCCTAATCTTTCTGTTCAAGCGCCATCTAC,4.05
2,GATGATTGTTCTCCCAGCTGATGAATTTGGTAGATCGAGTAAACAAATTTTCCTAATCTTTCTGTTCAAGCGCCATCTAC,0.388
3,GATGATTGTTCTCCCAGCTGATGAATTTGCAGCATCGAGTAAACAAATTTTCCTAATCTTTCTGTTCAAGCGCCATCTAC,1.6
4,GATGATTGTTCTCCCAGCTGATGAATTGGGGTGTTCGAGTAAACAAATTTTCCTAATCTTTCTGTTCAAGCGCCATCTAC,0.712
5,GATGATTGTTCTCCCAGCTGATGAATTAACAGGTTCGAGTAAACAAATTTTCCTAATCTTTCTGTTCAAGCGCCATCTAC,0.309
6,GATGATTGTTCTCCCAGCTGATGAATTGAAGGGGTCGAGTAAACAAATTTTCCTAATCTTTCTGTTCAAGCGCCATCTAC,0.278
7,GATGATTGTTCTCCCAGCTGATGAATTATTGGGCTCGAGTAAACAAATTTTCCTAATCTTTCTGTTCAAGCGCCATCTAC,0.598
8,GATGATTGTTCTCCCAGCTGATGAATTCGTTATATCGAGTAAACAAATTTTCCTAATCTTTCTGTTCAAGCGCCATCTAC,1.02
9,GATGATTGTTCTCCCAGCTGATGAATTTATTAGTTCGAGTAAACAAATTTTCCTAATCTTTCTGTTCAAGCGCCATCTAC,5.47
10,GATGATTGTTCTCCCAGCTGATGAATTCCGTGGATCGAGTAAACAAATTTTCCTAATCTTTCTGTTCAAGCGCCATCTAC,0.416
11,GATGATTGTTCTCCCAGCTGATGAATTCAGAATGTCGAGTAAACAAATTTTCCTAATCTTTCTGTTCAAGCGCCATCTAC,0.45
12,GATGATTGTTCTCCCAGCTGATGAATTGCGGCACTCGAGTAAACAAATTTTCCTAATCTTTCTGTTCAAGCGCCATCTAC,0.922
13,GATGATTGTTCTCCCAGCTGATGAATTCCTTATATCGAGTAAACAAATTTTCCTAATCTTTCTGTTCAAGCGCCATCTAC,0.314
14,GATGATTGTTCTCCCAGCTGATGAATTCAGCCGTTCGAGTAAACAAATTTTCCTAATCTTTCTGTTCAAGCGCCATCTAC,0.668
15,GATGATTGTTCTCCCAGCTGATGAATTTGATCATTCGAGTAAACAAATTTTCCTAATCTTTCTGTTCAAGCGCCATCTAC,0.627
16,GATGATTGTTCTCCCAGCTGATGAATTTCCACAGTCGAGTAAACAAATTTTCCTAATCTTTCTGTTCAAGCGCCATCTAC,0.208

row,Sequence,binding signal (RPM ratio (pull-down/input))
1,GATGATTGTTCTCCCAGCTGATGAATTCCAAGGTTCGAGTAAACAAATTTTCCTAATCTTTCTGTTCAAGCGCCATCTAC,0.23
2,GATGATTGTTCTCCCAGCTGATGAATTGGCGCTATCGAGTAAACAAATTTTCCTAATCTTTCTGTTCAAGCGCCATCTAC,0.848
3,GATGATTGTTCTCCCAGCTGATGAATTCCTGTCATCGAGTAAACAAATTTTCCTAATCTTTCTGTTCAAGCGCCATCTAC,0.482
4,GATGATTGTTCTCCCAGCTGATGAATTTTTGCCCTCGAGTAAACAAATTTTCCTAATCTTTCTGTTCAAGCGCCATCTAC,0.483
5,GATGATTGTTCTCCCAGCTGATGAATTGTTGCGGTCGAGTAAACAAATTTTCCTAATCTTTCTGTTCAAGCGCCATCTAC,2.29
6,GATGATTGTTCTCCCAGCTGATGAATTCATGTAATCGAGTAAACAAATTTTCCTAATCTTTCTGTTCAAGCGCCATCTAC,0.759
7,GATGATTGTTCTCCCAGCTGATGAATTTGGCTCCTCGAGTAAACAAATTTTCCTAATCTTTCTGTTCAAGCGCCATCTAC,0.863
8,GATGATTGTTCTCCCAGCTGATGAATTAGCTACTTCGAGTAAACAAATTTTCCTAATCTTTCTGTTCAAGCGCCATCTAC,0.488
9,GATGATTGTTCTCCCAGCTGATGAATTATCCTATTCGAGTAAACAAATTTTCCTAATCTTTCTGTTCAAGCGCCATCTAC,0.332
10,GATGATTGTTCTCCCAGCTGATGAATTGACACGGTCGAGTAAACAAATTTTCCTAATCTTTCTGTTCAAGCGCCATCTAC,0.311
11,GATGATTGTTCTCCCAGCTGATGAATTGCGCAACTCGAGTAAACAAATTTTCCTAATCTTTCTGTTCAAGCGCCATCTAC,6.43
12,GATGATTGTTCTCCCAGCTGATGAATTGAATGCGTCGAGTAAACAAATTTTCCTAATCTTTCTGTTCAAGCGCCATCTAC,1.34
13,GATGATTGTTCTCCCAGCTGATGAATTATGCGCCTCGAGTAAACAAATTTTCCTAATCTTTCTGTTCAAGCGCCATCTAC,2.82
14,GATGATTGTTCTCCCAGCTGATGAATTAGCCAAGTCGAGTAAACAAATTTTCCTAATCTTTCTGTTCAAGCGCCATCTAC,0.184
15,GATGATTGTTCTCCCAGCTGATGAATTCACCTCCTCGAGTAAACAAATTTTCCTAATCTTTCTGTTCAAGCGCCATCTAC,0.309
16,GATGATTGTTCTCCCAGCTGATGAATTCTTGTGATCGAGTAAACAAATTTTCCTAATCTTTCTGTTCAAGCGCCATCTAC,0.524
